Reference: PubChem BioAssay AID360 (National Center for Advancing Translational Sciences (NCATS), 2006)
The whole screen tested about 48,000 compounds, of which about 550 (1.1%) were called active. Not shown: some 4% with an inconclusive outcome. No stated cut-off is given here; in the data, active means potency below about 15 µM; inconclusive means mostly about 16 µM to 33 µM; inactive means weaker than that. The list shows a part of the results.

Target: Lysosomal acid glucosylceramidase (Homo sapiens) (UniProt P04062)
UniProt P04062, sequence (P04062 whole entry, looked up): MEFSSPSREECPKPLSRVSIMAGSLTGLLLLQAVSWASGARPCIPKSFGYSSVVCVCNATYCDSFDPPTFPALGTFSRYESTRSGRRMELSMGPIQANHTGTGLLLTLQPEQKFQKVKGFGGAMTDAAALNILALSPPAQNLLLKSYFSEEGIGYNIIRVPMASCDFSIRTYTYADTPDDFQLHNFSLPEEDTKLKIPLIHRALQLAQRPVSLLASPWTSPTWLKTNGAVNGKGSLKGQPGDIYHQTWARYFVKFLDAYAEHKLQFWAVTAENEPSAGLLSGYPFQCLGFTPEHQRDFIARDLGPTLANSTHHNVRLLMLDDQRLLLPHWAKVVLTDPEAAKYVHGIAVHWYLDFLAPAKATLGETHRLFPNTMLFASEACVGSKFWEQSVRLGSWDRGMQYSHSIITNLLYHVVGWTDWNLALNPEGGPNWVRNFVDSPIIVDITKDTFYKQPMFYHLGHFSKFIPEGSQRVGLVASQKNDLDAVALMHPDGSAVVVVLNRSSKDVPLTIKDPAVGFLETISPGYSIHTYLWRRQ
Experiment: Glucocerebrosidase;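 further: the screen sought inhibitors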
Details: purified enzyme, resorufin glucoside fluorescence (screen aimed at inhibitors), 20 min
Procedure, shortened: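 Normal human glucocerebrosidase (0.2 nM final) was assayed with resorufin β-D-glucopyranoside (30 uM final) in 50mM citric acid/KH2PO4, 10mM sodium taurocholate, 0.01% tween-20, pH 5.9. Compounds were titrated; fluorescence (Ex 548, Em 600) read after 20 min at RT.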
Potency means the concentration at half of the fitted maximal effect.

Potency, inactive:
O=C(Nc1ccc(N2CCOCC2)cc1)Nc1cnsn1 > 76.9 µM, CCOc1cccc(-c2nn3c(-c4cc(C)[nH]n4)nnc3s2)c1 > 76.9 µM, O=C(Nc1ccccc1C(=O)N1CCOCC1)C1CCC(=O)N1C1CCCC1 (stereo not given) > 76.9 µM, CCCN1CC=C2C(C#N)=C(N)C(C#N)(C#N)C(c3cc(OC)ccc3OC)C2C1 (stereo not given) > 76.9 µM, O=C(NCc1ccco1)c1cccn2c(=O)c3cc(Br)ccc3nc12 > 76.9 µM, Fc1cccc2sc(Nc3nnc(-c4ccco4)o3)nc12 > 76.9 µM, N#Cc1c(NC(=O)CSc2nc3ccccc3c(=O)n2Cc2ccco2)sc2c1CCCC2 > 76.9 µM, CC(C(=O)O)c1cccc(C(=O)c2ccccc2)c1 (stereo not given) > 76.9 µM, O=C(C1CCCN(Cc2cccs2)C1)N1CCCCCC1 (stereo not given) > 76.9 µM, O=C(COC(=O)C1CC1)Nc1ccc(Oc2ccccc2)cc1 > 76.9 µM, Cc1oc2cc(O)cc(O)c2c(=O)c1-c1ccc2c(c1)OCCCO2 > 76.9 µM, CCOc1ccc(N(CC(=O)NCc2ccc(OC)cc2)S(=O)(=O)c2c(C)noc2C)cc1 > 76.9 µM, COC(=O)c1c(N)n(-c2ccc(N3CCOCC3)cc2)c2nc3ccccc3nc12 > 76.9 µM, CCCCN(c1ccccc1)S(=O)(=O)c1ccc2c(c1)CCN2C(=O)CCC(=O)O > 76.9 µM, Cc1cc2oc(=O)cc(C)c2c(=O)o1 > 76.9 µM, CCOc1ccccc1C(=O)NCCCn1ccnc1 > 76.9 µM, COc1cccc(C(=O)NC2CC3CCCC(C2)N3CC(=O)Nc2ccccc2)c1 (stereo not given) > 76.9 µM, CN(C)c1oc(-c2ccccc2Cl)nc1C#N > 76.9 µM, COc1ccc(NC(=O)c2cc3n(n2)C(C(F)(F)F)CC(c2ccco2)N3)cc1 (stereo not given) > 76.9 µM, COc1ccc(OC)c(CNC(=O)CCNC(=O)Cn2ccc3ccccc3c2=O)c1 > 76.9 µM, CC(=O)Oc1ccc(NC(=O)CSc2ccccc2)cc1 > 76.9 µM, CC1CCCC(NC(=O)COC(=O)c2ccc(S(=O)(=O)N3CCOCC3)cc2)C1C (stereo not given) > 76.9 µM, CCOc1ccccc1NS(=O)(=O)c1cccs1 > 76.9 µM, COc1ccc(CN(C(=O)CNC(=O)c2ccco2)C(C(=O)NC2CCCC2)c2ccco2)cc1 (stereo not given) > 76.9 µM, O=C(CCC1CCCCC1)Nc1c2c(nn1-c1ccc(F)cc1)CS(=O)(=O)C2 > 76.9 µM, O=C(COC(=O)c1cccs1)NCc1ccco1 > 76.9 µM, O=C(c1ccccc1)N1CCN(C2CCCCCC2)CC1 > 76.9 µM, Cc1n[nH]c(C)c1S(=O)(=O)N1CCCCCC1 > 76.9 µM, COc1cccc(C(=O)Nc2ccc(NC(=O)C(C)C)nc2)c1 > 76.9 µM, Cc1nc2ncnn2c(N2CCC(C(=O)NCC3CCCO3)CC2)c1Cc1ccccc1 (stereo not given) > 76.9 µM, Cn1nnnc1SCC(=O)c1cccs1 > 76.9 µM, CCN(CC)CCOC(=O)c1cccc(Cl)c1 > 76.9 µM, O=C(Nc1nc2ccccc2s1)C1CCCO1 (stereo not given) > 76.9 µM, O=C(NCCCNCc1ccccc1)c1ccncc1 > 76.9 µM, CCN1CCN(C(=O)c2ccccc2N(Cc2ccccc2)S(C)(=O)=O)CC1 > 76.9 µM, COc1cc(OC)nc(NC(=O)CS(=O)(=O)c2ccccc2)n1 > 76.9 µM, CC(CN1CCOCC1)OC(=O)c1ccccc1Br (stereo not given) > 76.9 µM, Cc1cc(OCC(=O)Nc2ccc(S(=O)(=O)N3CCN(C)CC3)cc2)cc(C)c1Cl, c1cc2c(cc1Oc1nc(N3CCOCC3)nc(N3CCOCC3)n1)OCO2 > 76.9 µM, COc1ccccc1NC(=O)CSCC(N)=O > 76.9 µM, O=C(CCC(=O)c1ccc(F)cc1)OC1CCOC1=O (stereo not given) > 76.9 µM, COCc1cc(C)nc(N2CCc3ccccc32)c1C#N > 76.9 µM, CCOC(=O)CC1=CSC2=NS(=O)(=O)CCN12 > 76.9 µM, CCOc1ccc(OCc2ccc(C(=O)NCC3CCCO3)o2)cc1 (stereo not given) > 76.9 µM, COCCn1nnnc1C(C(C)C)N1CCOCC1 (stereo not given) > 76.9 µM, NC(=O)CC(O)c1cccc(Cl)c1 (stereo not given) > 76.9 µM, COc1ccc(-c2noc(C3CCCN(C(=O)c4cccs4)C3)n2)cc1 (stereo not given) > 76.9 µM, CCn1c(=N)n(CCO)c2ccccc21 > 76.9 µM, CCN(CC(=O)Nc1ccc2c(c1)OCCO2)Cc1cc(=O)oc2cc(C)c(C)cc12 > 76.9 µM, COc1cccc(CC(NC(C)=O)C(=O)NC2CCN(c3c4c(nc5ncnn35)CCC4)CC2)c1 (stereo not given) > 76.9 µM, CCCn1c(=O)c(C(=O)Nc2c(C)n(C)n(-c3ccccc3)c2=O)c(O)c2ccccc21 > 76.9 µM, CC1CCC2C(C1)c1sc(=O)[nH]c1SC2(C)C (stereo not given) > 76.9 µM, Cc1ccc2cccc(Oc3nnnn3-c3ccccc3)c2n1 > 76.9 µM, CCn1c(=O)cc(OCC(=O)O)c2ccccc21 > 76.9 µM, COc1ccc(CCNC(=O)c2cnn3cccnc23)cc1OC > 76.9 µM, O=C(NCc1ccco1)c1cc2n(n1)C(C(F)(F)F)CC(c1ccc(Cl)c(Cl)c1)N2 (stereo not given) > 76.9 µM, O=C(NCCCn1ccnc1)c1ccncc1 > 76.9 µM, Cc1cccc2c(=O)oc(-c3ccc4c(c3)C(=O)N(CC3CCCO3)C4=O)nc12 (stereo not given) > 76.9 µM, CCOc1ccccc1Oc1cn[nH]c1-c1ccc(OC)cc1O > 76.9 µM, CCCC(=O)c1ccc(N2CCN(S(=O)(=O)c3ccc(C)cc3)CC2)c(F)c1 > 76.9 µM
